The source of these data is US20050282843A1, “Therapeutic applications of 2-substituted 4-heteroarylpyrimidines” (priority 2002, published 2005).

The target of one test is CDK1/cyclin B1 (Homo sapiens, UniProt P06493). Kind of test: CDK/cyclin kinase assay, CDK1/cyclin B1.
Another test has as its target CDK2/cyclin A (Homo sapiens, UniProt P24941). Put plainly: CDK/cyclin kinase assay, CDK2/cyclin A.
In a further test the target is CDK4/cyclin D1 (Homo sapiens, UniProt P11802). Kind of test: CDK/cyclin kinase assay, CDK4/cyclin D1.
Another test has as its target T1, CDK2/cyclin E (Homo sapiens, UniProt P24941).
T1 construct: His6; made in house; host or cells: Sf9 insect cells (baculovirus)
Put plainly: CDK/cyclin kinase assay, CDK2/cyclin E. Format: biochemical. The conditions noted are these: read-out: Kinase inhibition IC50 CDK2/E.

The subject of test [1] is GSK-3β. Put plainly: GSK-3β kinase assay (phosphorylation of CREB phosphopeptide). Type of test: biochemical, rabbit. The note with it: ratio of IC50 values. On the procedure: (§1) GSK-3 was obtained from New England Biolabs (UK) Ltd., Hitchin, Herts. The recombinant enzyme was isolated from a strain of E. coli that carries a clone expressing GSK-3β derived from a rabbit skeletal muscle cDNA library [Wang, Q. M.; Fiol, C. […] The samples were transferred to 96-well p81 filter plates (Whatman Polyfiltronics, Kent, UK), and the plates were washed 4 times with 200 μL/well of 75 mM aq orthophosphoric acid.

In test [2] the target is GSK-3β (Oryctolagus cuniculus, UniProt G1T8E2). The description is as above. Type of test: biochemical, rabbit. On the procedure:
as §1

The mark [3] stands for this setting: read-out: IC50 value as measured by a GSK3β kinase assay.
[4] abbreviates: read-out: Kinase inhibition IC50 GSK3β.

Like-named read-outs stand apart in the source and are kept apart here. Some results are limits rather than exact numbers.

Chain of CDK4/cyclin D1 (P11802 whole entry): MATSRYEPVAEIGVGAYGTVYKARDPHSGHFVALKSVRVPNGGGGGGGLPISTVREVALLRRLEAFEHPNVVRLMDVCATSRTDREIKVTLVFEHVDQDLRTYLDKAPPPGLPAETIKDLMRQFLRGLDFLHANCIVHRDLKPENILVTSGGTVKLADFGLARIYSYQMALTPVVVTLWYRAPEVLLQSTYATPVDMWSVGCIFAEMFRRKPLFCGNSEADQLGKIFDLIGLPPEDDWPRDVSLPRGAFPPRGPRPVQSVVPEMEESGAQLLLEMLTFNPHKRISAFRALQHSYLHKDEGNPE
Chain of CDK4/cyclin D1 (P24385 whole entry partner): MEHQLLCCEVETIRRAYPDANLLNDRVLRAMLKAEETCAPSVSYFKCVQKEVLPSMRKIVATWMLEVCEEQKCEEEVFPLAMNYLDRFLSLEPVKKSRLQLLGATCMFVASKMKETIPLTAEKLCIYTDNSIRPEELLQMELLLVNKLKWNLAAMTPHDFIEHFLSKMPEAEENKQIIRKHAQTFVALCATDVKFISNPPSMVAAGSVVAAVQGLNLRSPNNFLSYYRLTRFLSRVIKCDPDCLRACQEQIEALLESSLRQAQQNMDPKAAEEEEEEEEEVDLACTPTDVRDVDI
Chain of CDK1/cyclin B1 (P06493 whole entry): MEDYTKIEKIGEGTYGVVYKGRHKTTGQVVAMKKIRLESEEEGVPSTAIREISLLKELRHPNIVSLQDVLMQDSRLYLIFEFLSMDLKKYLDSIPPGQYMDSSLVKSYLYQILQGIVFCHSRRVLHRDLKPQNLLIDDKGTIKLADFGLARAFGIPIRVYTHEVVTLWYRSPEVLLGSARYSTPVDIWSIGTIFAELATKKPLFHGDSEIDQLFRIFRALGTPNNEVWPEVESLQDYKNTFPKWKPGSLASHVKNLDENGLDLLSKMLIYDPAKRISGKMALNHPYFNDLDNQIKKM
Chain of CDK1/cyclin B1 (P14635 whole entry partner): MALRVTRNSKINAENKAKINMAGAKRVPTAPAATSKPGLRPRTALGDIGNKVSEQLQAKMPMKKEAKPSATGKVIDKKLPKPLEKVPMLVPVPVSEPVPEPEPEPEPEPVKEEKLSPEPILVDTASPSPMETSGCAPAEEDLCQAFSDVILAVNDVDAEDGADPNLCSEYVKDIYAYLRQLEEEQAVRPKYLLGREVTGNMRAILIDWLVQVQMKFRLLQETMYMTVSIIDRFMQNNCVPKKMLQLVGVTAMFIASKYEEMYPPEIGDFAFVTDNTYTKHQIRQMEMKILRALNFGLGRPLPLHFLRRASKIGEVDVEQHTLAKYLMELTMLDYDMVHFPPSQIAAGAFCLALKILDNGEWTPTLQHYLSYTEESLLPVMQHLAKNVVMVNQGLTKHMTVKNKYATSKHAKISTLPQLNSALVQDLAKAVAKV
Chain of GSK-3β (G1T8E2 1-432): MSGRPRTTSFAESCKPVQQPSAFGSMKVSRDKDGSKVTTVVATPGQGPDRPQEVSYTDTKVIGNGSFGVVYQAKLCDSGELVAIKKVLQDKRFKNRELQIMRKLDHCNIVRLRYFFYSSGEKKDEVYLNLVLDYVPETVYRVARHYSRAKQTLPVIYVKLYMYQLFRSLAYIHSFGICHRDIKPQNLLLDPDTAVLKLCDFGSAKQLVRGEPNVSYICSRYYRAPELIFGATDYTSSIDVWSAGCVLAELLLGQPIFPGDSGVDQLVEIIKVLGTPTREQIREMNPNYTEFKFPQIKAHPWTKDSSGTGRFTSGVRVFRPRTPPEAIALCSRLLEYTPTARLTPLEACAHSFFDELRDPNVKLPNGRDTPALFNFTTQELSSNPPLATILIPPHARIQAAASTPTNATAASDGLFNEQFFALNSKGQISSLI

Turning to `Cc1c(-c2ccnc(Nc3cccc(O)c3)n2)sc(=O)n1C` [Compound 25, 5-[2-(3-Hydroxy-phenylamino)-pyrimidin-4-yl]-3,4-dimethyl-3H-thiazol-2-one], the IC50 on CDK1/cyclin B1 is 510 nM; at CDK2/cyclin A, 90 nM; on CDK4/cyclin D1 it was 1100 nM; at CDK2/cyclin E, 90 nM; on GSK-3β [2] (setting [3]), less than 100 nM; on GSK-3β [2] (setting [4]), 40 nM. For the same molecule, in the test on GSK-3β [1], the “Selectivity, IC50 (CDK2/E)/IC50 (GSK3β)” value amounted to 2.3.

As to `Cc1c(-c2ccnc(Nc3ccc(N(C)C)cc3)n2)sc(=O)n1C` [Compound 26, 5-[2-(4-Dimethylamino-phenylamino)-pyrimidin-4-yl]-3,4-dimethyl-3H-thiazol-2-one], the IC50 against CDK1/cyclin B1 came out at 2470 nM; against CDK2/cyclin A it was 750 nM; against CDK4/cyclin D1 it was 950 nM; at CDK2/cyclin E, 1500 nM; on GSK-3β [2] (setting [4]), 640 nM. Moreover, in the test with GSK-3β [1], the “Selectivity, IC50 (CDK2/E)/IC50 (GSK3β)” value stood at 2.4.

Take `Cc1c(-c2ccnc(Nc3ccc(Cl)cc3)n2)sc(=O)n1C` [Compound 23, 5-[2-(4-Chloro-phenylamino)-pyrimidin-4-yl]-3,4-dimethyl-3H-thiazol-2-one]: the IC50 against CDK1/cyclin B1 is 1960 nM; against CDK2/cyclin A, 740 nM; on CDK4/cyclin D1 it was 2900 nM; on CDK2/cyclin E it was 290 nM; at GSK-3β [2] (setting [3]), less than 100 nM; on GSK-3β [2] (setting [4]), 30 nM. Further, the “Selectivity, IC50 (CDK2/E)/IC50 (GSK3β)” value in the test with GSK-3β [1] is listed as 10.
